The values that follow come from a collection of fitness landscapes (doi:10.1126/science.1257360).

Some of the results follow.

To fix the notation:
B1: PhoQ; a variant is named by its letters at X, in order, P23837 (parent)
chain: MKKLLRLFFPLSLRVRFLLATAAVVLVLSLAYGMVALIGYSVSFDKTTFRLLRGESNLFYTLAKWENNKLHVELPENIDKQSPTMTLIYDENGQLLWAQRDVPWLMKMIQPDWLKSNGFHEIEADVNDTSLLLSGDHSIQQQLQEVREDDDDAEMTHSVAVNVYPATSRMPKLTIVVVDTIPVELKSSYMVWSWFIYVLSANLLLVIPLLWVAAWWSLRPIEALAKEVRELEEHNRELLNPATTRELTSLVRNLNRLLKSERERYDKYRTTLTDLTHSLKTPLXXLQXXLRSLRSEKMSVSDAEPVMLEQISRISQQIGYYLHRASMRGGTLLSRELHPVAPLLDNLTSALNKVYQRKGVNISLDISPEISFVGEQNDFVEVMGNVLDNACKYCLEFVEISARQTDEHLYIVVEDDGPGIPLSKREVIFDRGQRVDTLRPGQGVGLAVAREITEQYEGKIVAGESMLGGARMEVIFGRQHSAPKDE

The experiment covers variants of B1. Briefly: enrichment ratio after two sorts for PhoP signalling (ratio (wild type AVST 3.29)); higher = more functional. The following applies: with PhoP (E. coli).
With ALRY, the enrichment ratio is at most 0.25.

Consider LWQQ, for which the enrichment ratio is at most 0.25.

With FAMM, the enrichment ratio was found to be 9.29.

Turning to DMHR, the enrichment ratio is at most 0.25.

As to MPFA, the enrichment ratio was at most 0.25.

With GWPP, the enrichment ratio is at most 0.25.

On to GHDI, for which the enrichment ratio is at most 0.25.

On to LPAM, for which the enrichment ratio is at most 0.25.

With RWCF, the enrichment ratio was at most 0.25.

WPTG: the enrichment ratio was at most 0.25.

For the variant NELY, the enrichment ratio is at most 0.25.

With SPQE, the enrichment ratio is at most 0.25.

In the case of VEHI, the enrichment ratio was at most 0.25.

With ADRN, the enrichment ratio is at most 0.25.

Turning to DVGH, the enrichment ratio is at most 0.25.

As for PIGL, the enrichment ratio is at most 0.25.

For the variant DLWY, the enrichment ratio was at most 0.25.

HTRN: the enrichment ratio was at most 0.25.

For QLFT, the enrichment ratio was at most 0.25.

As to FHGG, the enrichment ratio was at most 0.25.

In the case of VGGN, the enrichment ratio was at most 0.25.

On to QFRQ, for which the enrichment ratio was at most 0.25.

On to MDGG, for which the enrichment ratio was at most 0.25.

Consider TDSP, for which the enrichment ratio was at most 0.25.

Take QHAW: the enrichment ratio is at most 0.25.

Regarding AIGP, the enrichment ratio is at most 0.25.

Take SEVE: the enrichment ratio is 6.62.

RTYG: the enrichment ratio was at most 0.25.

Consider HKTR, for which the enrichment ratio was at most 0.25.

With LTLI, the enrichment ratio came out at 0.384.

For PSCK, the enrichment ratio was at most 0.25.

Take GEVM: the enrichment ratio is 13.6.

For the variant ALMW, the enrichment ratio was at most 0.25.

With DTEQ, the enrichment ratio is at most 0.25.

EYQI: the enrichment ratio is at most 0.25.

As for YAIS, the enrichment ratio is at most 0.25.

In the case of EKGA, the enrichment ratio was at most 0.25.

Regarding GCPF, the enrichment ratio is at most 0.25.

Regarding HLDY, the enrichment ratio is at most 0.25.

Take QRPA: the enrichment ratio is at most 0.25.

On to TFYF, for which the enrichment ratio was at most 0.25.

Take LCWK: the enrichment ratio was at most 0.25.

Turning to TIEE, the enrichment ratio was at most 0.25.

With LEKN, the enrichment ratio is at most 0.25.

With YNAW, the enrichment ratio is at most 0.25.

Regarding PREC, the enrichment ratio is at most 0.25.

Turning to SWDG, the enrichment ratio was at most 0.25.

MDPA: the enrichment ratio is at most 0.25.

Turning to VGNE, the enrichment ratio is at most 0.25.

On to HDRD, for which the enrichment ratio was at most 0.25.

Regarding DDRL, the enrichment ratio is at most 0.25.

VGHS: the enrichment ratio was at most 0.25.

Turning to HEDL, the enrichment ratio is at most 0.25.

Consider RVTR, for which the enrichment ratio is at most 0.25.

DMDV: the enrichment ratio is at most 0.25.

Regarding IVWK, the enrichment ratio was at most 0.25.

As for DWPW, the enrichment ratio was at most 0.25.

Turning to STSH, the enrichment ratio turned out to be 8.84.

On to TTKT, for which the enrichment ratio is at most 0.25.

For the variant AKCD, the enrichment ratio came to 0.285.

Consider LKHF, for which the enrichment ratio is at most 0.25.

For DYAG, the enrichment ratio was at most 0.25.

Consider YALN, for which the enrichment ratio was determined as 10.5.

As for YQTY, the enrichment ratio is at most 0.25.

In the case of VLYI, the enrichment ratio is at most 0.25.

For the variant HQYC, the enrichment ratio is at most 0.25.

Take SYRG: the enrichment ratio is at most 0.25.

Turning to QHVQ, the enrichment ratio is at most 0.25.

As to SPAH, the enrichment ratio was at most 0.25.

Turning to FTTA, the enrichment ratio was at most 0.25.

On to HPMR, for which the enrichment ratio is at most 0.25.

With VTHS, the enrichment ratio was at most 0.25.

As to WDNH, the enrichment ratio is at most 0.25.

On to FDMT, for which the enrichment ratio is at most 0.25.

As for LEQY, the enrichment ratio is at most 0.25.

As for LVVK, the enrichment ratio was at most 0.25.

Regarding VFNK, the enrichment ratio is at most 0.25.

With LSWY, the enrichment ratio came to 2.49.

Consider VEQK, for which the enrichment ratio is at most 0.25.

For APVE, the enrichment ratio is at most 0.25.

For MYYL, the enrichment ratio is at most 0.25.

For DSNF, the enrichment ratio was at most 0.25.

For the variant SRAN, the enrichment ratio was at most 0.25.

YESK: the enrichment ratio is at most 0.25.

With GPNP, the enrichment ratio was at most 0.25.

In the case of TWML, the enrichment ratio is at most 0.25.

For the variant AYEM, the enrichment ratio is at most 0.25.

As to PDFI, the enrichment ratio was at most 0.25.

Consider GCPA, for which the enrichment ratio is at most 0.25.

NHCN: the enrichment ratio is at most 0.25.

Consider MIPA, for which the enrichment ratio is at most 0.25.

As for NPHM, the enrichment ratio was at most 0.25.

With FWQC, the enrichment ratio is at most 0.25.

Turning to QLYE, the enrichment ratio was at most 0.25.

With VFRR, the enrichment ratio is at most 0.25.

Consider MKWF, for which the enrichment ratio is at most 0.25.

Turning to EWLL, the enrichment ratio is at most 0.25.

Consider YWLF, for which the enrichment ratio is at most 0.25.

Turning to DFLL, the enrichment ratio was at most 0.25.

In the case of ERLT, the enrichment ratio was at most 0.25.

For the variant ANRT, the enrichment ratio was at most 0.25.

Take EKEP: the enrichment ratio is at most 0.25.

In the case of RSNH, the enrichment ratio was at most 0.25.

Turning to SKEM, the enrichment ratio is at most 0.25.

With NSKW, the enrichment ratio is at most 0.25.
